The text below walks through data of article PMC2918618, “Characterization of the TnsD-attTn7 complex that promotes site-specific insertion of Tn7” (Mobile DNA, 2010).

These are yes or no findings as the source states them, for the method shown. Some results given as binding are weak or reduced against the parent protein; the word gives no strength.

What all share (assay): two-hybrid; yeast two-hybrid (ProQuest Two-Hybrid System); TnsD in pDBLeu (Gal4-DB), TnsC in pPC86 (Gal4-AD); read-out β-galactosidase activity; empty vectors gave 0.075
The target in assay [1] is T1, TnsD (1 to 436) (E. coli (transposon Tn7)) (UniProt P13991).
T1 sequence: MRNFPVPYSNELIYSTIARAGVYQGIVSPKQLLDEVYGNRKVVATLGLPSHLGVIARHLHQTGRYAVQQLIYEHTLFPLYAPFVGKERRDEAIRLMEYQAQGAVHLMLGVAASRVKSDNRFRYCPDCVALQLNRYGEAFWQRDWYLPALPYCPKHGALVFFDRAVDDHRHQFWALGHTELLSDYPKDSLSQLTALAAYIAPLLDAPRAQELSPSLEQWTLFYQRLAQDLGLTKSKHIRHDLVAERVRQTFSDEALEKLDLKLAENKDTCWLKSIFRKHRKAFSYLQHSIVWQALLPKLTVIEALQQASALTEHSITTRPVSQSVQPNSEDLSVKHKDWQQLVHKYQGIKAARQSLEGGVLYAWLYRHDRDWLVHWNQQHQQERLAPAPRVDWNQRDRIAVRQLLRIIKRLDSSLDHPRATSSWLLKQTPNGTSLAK

The target of assay [2] is T2, TnsD (12 to 507) (E. coli (transposon Tn7)) (UniProt P13991).
T2 sequence: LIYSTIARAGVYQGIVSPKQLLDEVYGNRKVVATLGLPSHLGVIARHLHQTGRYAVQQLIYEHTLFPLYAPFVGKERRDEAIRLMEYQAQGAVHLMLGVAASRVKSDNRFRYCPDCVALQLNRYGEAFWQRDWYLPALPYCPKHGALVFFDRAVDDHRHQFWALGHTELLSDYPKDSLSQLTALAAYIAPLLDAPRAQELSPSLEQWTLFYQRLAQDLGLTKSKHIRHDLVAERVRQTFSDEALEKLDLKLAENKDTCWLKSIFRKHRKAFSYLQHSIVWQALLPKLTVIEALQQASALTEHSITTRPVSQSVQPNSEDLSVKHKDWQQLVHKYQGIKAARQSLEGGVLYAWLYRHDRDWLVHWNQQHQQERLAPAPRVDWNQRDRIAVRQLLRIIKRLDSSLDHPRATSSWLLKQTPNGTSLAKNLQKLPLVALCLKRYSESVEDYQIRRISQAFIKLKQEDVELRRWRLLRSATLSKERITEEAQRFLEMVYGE

Assay [3] addresses T3, TnsD (16 to 507) (E. coli (transposon Tn7)) (UniProt P13991).
T3 sequence: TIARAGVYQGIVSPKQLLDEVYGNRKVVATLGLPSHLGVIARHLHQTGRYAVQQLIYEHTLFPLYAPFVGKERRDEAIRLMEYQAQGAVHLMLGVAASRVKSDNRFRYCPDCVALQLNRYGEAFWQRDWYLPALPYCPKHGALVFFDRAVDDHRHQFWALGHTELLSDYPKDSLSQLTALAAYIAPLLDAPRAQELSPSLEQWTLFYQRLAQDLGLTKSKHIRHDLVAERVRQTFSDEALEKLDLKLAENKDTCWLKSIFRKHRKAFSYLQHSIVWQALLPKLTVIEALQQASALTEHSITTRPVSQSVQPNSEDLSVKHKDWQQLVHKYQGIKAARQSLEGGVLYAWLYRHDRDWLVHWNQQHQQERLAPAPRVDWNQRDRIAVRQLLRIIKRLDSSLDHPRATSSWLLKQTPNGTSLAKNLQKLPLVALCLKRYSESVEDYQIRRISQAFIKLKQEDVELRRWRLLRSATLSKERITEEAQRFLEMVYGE

Assay [4] concerns the target T4, TnsD (22 to 507) (E. coli (transposon Tn7)) (UniProt P13991).
T4 sequence: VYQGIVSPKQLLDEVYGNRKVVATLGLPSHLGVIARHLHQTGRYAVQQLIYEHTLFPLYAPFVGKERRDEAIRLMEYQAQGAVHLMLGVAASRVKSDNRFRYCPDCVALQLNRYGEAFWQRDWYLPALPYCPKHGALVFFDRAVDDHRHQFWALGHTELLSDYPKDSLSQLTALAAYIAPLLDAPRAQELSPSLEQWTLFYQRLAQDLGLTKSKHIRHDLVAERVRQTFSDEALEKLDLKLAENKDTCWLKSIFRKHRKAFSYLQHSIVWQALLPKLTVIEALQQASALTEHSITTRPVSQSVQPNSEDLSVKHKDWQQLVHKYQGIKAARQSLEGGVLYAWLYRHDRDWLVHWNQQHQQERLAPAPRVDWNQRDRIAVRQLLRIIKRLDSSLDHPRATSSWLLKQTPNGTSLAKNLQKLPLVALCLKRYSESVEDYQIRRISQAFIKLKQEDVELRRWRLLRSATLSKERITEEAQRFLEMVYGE

For assay [5], the target named is T5, TnsD (8 to 507) (E. coli (transposon Tn7)) (UniProt P13991).
T5 sequence: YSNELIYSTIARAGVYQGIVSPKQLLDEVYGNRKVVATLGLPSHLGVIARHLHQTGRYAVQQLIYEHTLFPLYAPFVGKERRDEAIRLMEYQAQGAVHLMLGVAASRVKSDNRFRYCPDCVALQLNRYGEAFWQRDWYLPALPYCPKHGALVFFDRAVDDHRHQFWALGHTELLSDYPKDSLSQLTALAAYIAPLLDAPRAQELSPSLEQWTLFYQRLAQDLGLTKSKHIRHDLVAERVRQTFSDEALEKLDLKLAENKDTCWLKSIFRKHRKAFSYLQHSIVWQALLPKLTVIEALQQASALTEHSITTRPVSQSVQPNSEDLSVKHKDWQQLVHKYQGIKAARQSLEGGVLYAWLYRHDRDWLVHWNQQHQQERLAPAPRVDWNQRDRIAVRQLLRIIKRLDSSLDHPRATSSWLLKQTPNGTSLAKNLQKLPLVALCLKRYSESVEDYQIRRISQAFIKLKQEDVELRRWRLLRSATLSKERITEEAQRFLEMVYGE

Assay [6] addresses T6, TnsD 1 to 480 (E. coli (transposon Tn7)) (UniProt P13991).
T6 sequence: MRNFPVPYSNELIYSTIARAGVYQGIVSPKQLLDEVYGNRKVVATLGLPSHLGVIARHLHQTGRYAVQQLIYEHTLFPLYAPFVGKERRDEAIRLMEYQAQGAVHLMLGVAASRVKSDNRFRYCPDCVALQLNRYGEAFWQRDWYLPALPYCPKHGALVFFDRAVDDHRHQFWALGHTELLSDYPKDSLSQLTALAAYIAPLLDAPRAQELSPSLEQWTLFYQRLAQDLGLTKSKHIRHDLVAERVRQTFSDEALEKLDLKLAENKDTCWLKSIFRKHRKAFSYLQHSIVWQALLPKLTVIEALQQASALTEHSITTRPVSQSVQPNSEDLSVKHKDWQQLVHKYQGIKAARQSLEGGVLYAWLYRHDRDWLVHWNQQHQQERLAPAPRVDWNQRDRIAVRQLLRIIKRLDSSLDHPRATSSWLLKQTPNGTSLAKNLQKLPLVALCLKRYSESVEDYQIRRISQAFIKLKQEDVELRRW

The target in assay [7] is T7, TnsD 1 to 490 (E. coli (transposon Tn7)) (UniProt P13991).
T7 sequence: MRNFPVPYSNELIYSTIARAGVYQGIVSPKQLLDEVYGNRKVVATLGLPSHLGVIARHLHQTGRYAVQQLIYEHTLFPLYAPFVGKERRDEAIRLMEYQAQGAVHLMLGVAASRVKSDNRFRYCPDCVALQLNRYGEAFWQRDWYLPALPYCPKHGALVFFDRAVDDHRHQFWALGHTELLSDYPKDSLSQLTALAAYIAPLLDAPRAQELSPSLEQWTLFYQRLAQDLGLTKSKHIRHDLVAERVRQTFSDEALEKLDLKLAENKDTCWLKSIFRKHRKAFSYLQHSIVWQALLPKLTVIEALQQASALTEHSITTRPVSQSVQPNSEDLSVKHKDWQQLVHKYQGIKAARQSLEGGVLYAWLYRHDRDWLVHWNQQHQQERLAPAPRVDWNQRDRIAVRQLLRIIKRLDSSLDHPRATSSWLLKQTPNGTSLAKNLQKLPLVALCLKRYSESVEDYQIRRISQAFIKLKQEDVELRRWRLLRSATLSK

For assay [8], the target named is T8, TnsD 1 to 498 (E. coli (transposon Tn7)) (UniProt P13991).
T8 sequence: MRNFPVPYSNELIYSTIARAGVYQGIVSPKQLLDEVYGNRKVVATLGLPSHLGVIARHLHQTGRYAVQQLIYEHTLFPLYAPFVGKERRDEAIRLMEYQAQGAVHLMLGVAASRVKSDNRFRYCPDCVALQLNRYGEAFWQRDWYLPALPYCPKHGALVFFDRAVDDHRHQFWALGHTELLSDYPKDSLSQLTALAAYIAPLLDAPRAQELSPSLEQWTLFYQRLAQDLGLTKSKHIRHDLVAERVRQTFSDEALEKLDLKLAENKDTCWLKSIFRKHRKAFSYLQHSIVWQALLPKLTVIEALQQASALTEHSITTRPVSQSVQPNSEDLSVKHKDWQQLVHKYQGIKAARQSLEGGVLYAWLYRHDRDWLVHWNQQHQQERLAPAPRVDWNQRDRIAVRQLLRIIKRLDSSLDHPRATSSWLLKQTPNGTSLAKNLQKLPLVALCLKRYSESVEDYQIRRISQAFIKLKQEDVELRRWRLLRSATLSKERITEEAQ

B1: TnsC (1 to 555) wt (natural protein, E. coli (transposon Tn7), UniProt P05846 1-555, looked up)
chain: MSATRIQAVYRDTGVEAYRDNPFIEALPPLQESVNSAASLKSSLQLTSSDLQKSRVIRAHTICRIPDDYFQPLGTHLLLSERISVMIRGGYVGRNPKTGDLQKHLQNGYERVQTGELETFRFEEARSTAQSLLLIGCSGSGKTTSLHRILATYPQVIYHRELNVEQVVYLKIDCSHNGSLKEICLNFFRALDRALGSNYERRYGLKRHGIETMLALMSQIANAHALGLLVIDEIQHLSRSRSGGSQEMLNFFVTMVNIIGVPVMLIGTPKAREIFEADLRSARRGAGFGAIFWDPIQQTQRGKPNQEWIAFTDNLWQLQLLQRKDALLSDEVRDVWYELSQGVMDIVVKLFVLAQLRALALGNERITAGLLRQVYQDELKPVHPMLEALRSGIPERIARYSDLVVPEIDKRLIQLQLDIAAIQEQTPEEKALQELDTEDQRHLYLMLKEDYDSSLLIPTIKKAFSQNPTMTRQKLLPLVLQWLMEGETVVSELEKPSKSKKVSAIKVVKPSDWDSLPDTDLRYIYSQRQPEKTMHERLKGKGVIVDMASLFKQAG
notes: TnsC, transposition protein of the bacterial transposon Tn7, residues 1 to 555 (full-length is 555 aa); TnsC was cloned into pPC86 (ProQuest Two-Hybrid System); also called full-length TnsC; source: yeast two-hybrid fusion
Consider B1, for which the binding entry in assay [1] is given as “no binding”; in assay [2], “no binding”; in assay [3], “no binding”; in assay [4], “no binding”; in assay [5], “no binding”; in assay [6] it was “binds”. Moreover, the binding entry in assay [7] and in assay [8] was “binds” throughout.
